Measured values published in PMC4203352.
Substitutions are numbered along the chain they refer to. Names may count otherwise. Read-outs that look alike come from different tables or passages of the source. No constants are given. Whether binding was seen depends on the method and setting. For some of these results: In cells and extracts the contact can be indirect. Some entries that bind do so weakly or less than the wild type. For some of these results: Sequences can lack the tags named with a protein. Values belong to the molecule of their own block, whether it stands above or below them.

The chains behind the UniProt entries cited, without tags or fusion partners. Residues count along the entry.
UniProt P07237, residues 18-508: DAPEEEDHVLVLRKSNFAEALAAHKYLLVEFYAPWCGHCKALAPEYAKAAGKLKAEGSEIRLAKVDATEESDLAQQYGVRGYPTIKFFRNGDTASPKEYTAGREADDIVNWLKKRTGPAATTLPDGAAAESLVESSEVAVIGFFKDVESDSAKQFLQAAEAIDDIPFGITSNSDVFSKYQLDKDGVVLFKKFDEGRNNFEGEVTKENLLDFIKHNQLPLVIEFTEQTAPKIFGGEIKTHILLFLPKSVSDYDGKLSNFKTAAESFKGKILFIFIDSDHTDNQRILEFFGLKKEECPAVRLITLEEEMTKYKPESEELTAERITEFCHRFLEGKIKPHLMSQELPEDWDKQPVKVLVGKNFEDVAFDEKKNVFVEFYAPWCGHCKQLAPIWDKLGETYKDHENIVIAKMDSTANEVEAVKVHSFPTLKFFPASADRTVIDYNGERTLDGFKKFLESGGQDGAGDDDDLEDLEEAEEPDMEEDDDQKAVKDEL
UniProt Q8NBS9, residues 33-432: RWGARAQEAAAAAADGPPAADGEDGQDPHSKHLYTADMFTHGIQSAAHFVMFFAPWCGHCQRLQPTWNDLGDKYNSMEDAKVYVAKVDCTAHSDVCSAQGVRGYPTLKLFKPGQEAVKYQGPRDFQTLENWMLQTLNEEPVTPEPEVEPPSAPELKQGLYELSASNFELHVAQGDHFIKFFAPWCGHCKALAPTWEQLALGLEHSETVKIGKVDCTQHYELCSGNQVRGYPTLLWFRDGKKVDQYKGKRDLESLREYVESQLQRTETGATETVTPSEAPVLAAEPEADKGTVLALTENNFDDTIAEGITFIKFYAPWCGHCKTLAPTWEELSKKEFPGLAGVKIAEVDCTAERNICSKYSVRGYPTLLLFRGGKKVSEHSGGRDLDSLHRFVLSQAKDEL
UniProt P30101, residues 25-505: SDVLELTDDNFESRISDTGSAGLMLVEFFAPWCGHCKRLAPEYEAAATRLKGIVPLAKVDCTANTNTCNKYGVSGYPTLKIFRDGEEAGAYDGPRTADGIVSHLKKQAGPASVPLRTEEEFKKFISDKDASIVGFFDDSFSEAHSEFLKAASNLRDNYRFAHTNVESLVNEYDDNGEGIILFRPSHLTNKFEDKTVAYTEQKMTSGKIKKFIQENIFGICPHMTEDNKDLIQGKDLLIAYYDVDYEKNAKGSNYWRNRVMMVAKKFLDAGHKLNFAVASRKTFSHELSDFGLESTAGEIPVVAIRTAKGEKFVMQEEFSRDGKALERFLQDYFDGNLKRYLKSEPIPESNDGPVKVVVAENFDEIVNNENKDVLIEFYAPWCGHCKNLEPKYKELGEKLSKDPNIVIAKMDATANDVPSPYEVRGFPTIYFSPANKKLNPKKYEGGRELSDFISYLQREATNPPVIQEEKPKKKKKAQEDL

Tests used:
[1] = target: T1, Thioredoxin-interacting protein (Txnip), N-terminal tandem Strep/FLAG tag (UniProt Q9H3M7); experiment: pull-down; HEK293TN cells co-transfected with the indicated plasmids; lysis in 0.5% Triton X-100, 150 mM NaCl, 50 mM Tris, pH 7.8; Strep/FLAG-tagged Txnip (or Arrdc1-4) held on magnetic Streptactin beads; wash with 0.5% Triton X-100, 500 mM NaCl, 50 mM Tris, pH 7.8; eluates by SDS-PAGE and immunoblot
T1 sequence: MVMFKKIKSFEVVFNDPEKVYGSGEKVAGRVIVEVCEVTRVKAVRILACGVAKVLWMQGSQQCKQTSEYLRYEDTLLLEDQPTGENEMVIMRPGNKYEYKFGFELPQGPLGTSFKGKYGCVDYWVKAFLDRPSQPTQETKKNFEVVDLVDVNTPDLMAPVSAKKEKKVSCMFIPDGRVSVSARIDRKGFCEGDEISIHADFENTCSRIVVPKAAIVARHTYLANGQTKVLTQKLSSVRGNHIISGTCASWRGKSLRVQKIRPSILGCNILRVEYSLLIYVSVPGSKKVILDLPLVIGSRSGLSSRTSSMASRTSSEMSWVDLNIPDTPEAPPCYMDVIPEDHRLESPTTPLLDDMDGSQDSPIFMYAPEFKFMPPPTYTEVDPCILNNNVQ

[2] = target: T1, Thioredoxin-interacting protein (Txnip), N-terminal tandem Strep/FLAG tag; experiment: as above; remark: listed apart in the source
[3] = target: PDI (protein disulfide isomerase), HA tag (UniProt P07237); experiment: pull-down; reverse pulldown: affinity chromatography of the PDIs from lysates of transfected HEK293TN cells, Txnip detected by Western blot
PDIA13, HA tag = target: T2, PDIA13, HA tag (UniProt Q96JJ7); experiment: as above
T2 sequence: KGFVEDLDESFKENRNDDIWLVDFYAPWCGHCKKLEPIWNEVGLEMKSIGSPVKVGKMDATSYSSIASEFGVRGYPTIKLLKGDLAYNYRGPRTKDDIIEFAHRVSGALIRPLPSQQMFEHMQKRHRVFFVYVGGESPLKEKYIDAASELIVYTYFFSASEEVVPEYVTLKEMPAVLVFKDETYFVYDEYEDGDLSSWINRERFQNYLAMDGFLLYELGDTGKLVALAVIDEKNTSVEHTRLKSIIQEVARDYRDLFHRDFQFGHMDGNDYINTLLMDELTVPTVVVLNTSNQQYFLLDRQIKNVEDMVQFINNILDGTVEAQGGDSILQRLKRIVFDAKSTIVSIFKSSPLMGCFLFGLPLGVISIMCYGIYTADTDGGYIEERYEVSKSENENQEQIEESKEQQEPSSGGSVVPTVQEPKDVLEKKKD

PDIA4, HA tag = target: T3, PDIA4, HA tag (UniProt P13667); experiment: as above
T3 sequence: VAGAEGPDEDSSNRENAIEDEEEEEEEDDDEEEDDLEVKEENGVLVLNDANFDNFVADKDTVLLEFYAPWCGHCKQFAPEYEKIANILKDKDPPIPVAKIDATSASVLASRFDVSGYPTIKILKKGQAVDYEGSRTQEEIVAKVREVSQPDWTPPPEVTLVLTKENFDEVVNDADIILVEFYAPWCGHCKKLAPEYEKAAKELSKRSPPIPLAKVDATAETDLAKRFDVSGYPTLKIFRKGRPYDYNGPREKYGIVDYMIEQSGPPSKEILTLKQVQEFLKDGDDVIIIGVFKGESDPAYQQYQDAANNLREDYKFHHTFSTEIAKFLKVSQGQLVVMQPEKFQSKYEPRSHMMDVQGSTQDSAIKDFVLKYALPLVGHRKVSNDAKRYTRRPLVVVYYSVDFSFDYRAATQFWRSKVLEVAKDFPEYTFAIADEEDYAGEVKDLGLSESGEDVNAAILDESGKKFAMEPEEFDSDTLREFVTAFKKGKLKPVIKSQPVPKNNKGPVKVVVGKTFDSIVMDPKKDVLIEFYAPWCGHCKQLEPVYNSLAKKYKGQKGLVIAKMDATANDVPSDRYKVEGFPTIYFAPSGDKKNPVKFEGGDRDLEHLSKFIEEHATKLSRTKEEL

[4] = target: T4, full-length PDIA6 (1-421), HA tag (UniProt Q15084); experiment: as above
T4 sequence: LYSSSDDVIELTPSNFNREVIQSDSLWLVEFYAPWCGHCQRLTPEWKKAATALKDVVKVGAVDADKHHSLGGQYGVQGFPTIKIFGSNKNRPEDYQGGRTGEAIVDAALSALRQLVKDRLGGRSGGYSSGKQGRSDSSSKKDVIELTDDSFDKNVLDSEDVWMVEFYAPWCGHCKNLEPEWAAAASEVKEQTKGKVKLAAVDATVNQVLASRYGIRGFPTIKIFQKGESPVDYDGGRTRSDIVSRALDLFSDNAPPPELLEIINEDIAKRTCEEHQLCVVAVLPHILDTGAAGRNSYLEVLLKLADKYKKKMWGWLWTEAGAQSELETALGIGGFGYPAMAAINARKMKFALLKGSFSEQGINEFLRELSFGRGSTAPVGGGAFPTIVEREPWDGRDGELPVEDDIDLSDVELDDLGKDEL

PDIA15, HA tag = PDIA15, HA tag (UniProt Q8NBS9); experiment: as above
[5] = target: PDI (in the NEM trapping experiment) (UniProt P07237); experiment: free sulfhydryl alkylation (NEM) trapping, non-reducing SDS-PAGE and Western blot; all free cysteine residues blocked with N-ethylmaleimide; non-reducing SDS-PAGE and Western blot of Txnip-PDI complexes

binding [1]: binds
Molecule: PDIA15, HA tag (from UniProt Q8NBS9 33-432) (enzyme)

binding [1]: binds
Molecule: PDIA3, HA tag (from UniProt P30101 25-505) (enzyme)

binding [1]: no binding
Molecule: PDIA9, HA tag (from UniProt P30040 33-261)

binding [1]: binds
Molecule: PDI (protein disulfide isomerase), HA tag (from UniProt P07237 18-508) (enzyme)

binding [2]: binds
B1: PDIA6 (135-421), C-terminal domain, HA tag (domain or fragment, UniProt Q15084 154-440)
chain: SDSSSKKDVIELTDDSFDKNVLDSEDVWMVEFYAPWCGHCKNLEPEWAAAASEVKEQTKGKVKLAAVDATVNQVLASRYGIRGFPTIKIFQKGESPVDYDGGRTRSDIVSRALDLFSDNAPPPELLEIINEDIAKRTCEEHQLCVVAVLPHILDTGAAGRNSYLEVLLKLADKYKKKMWGWLWTEAGAQSELETALGIGGFGYPAMAAINARKMKFALLKGSFSEQGINEFLRELSFGRGSTAPVGGGAFPTIVEREPWDGRDGELPVEDDIDLSDVELDDLGKDEL

binding [2]: binds
B2: PDIA6 (135-421) C174S, HA tag (domain or fragment, UniProt Q15084 154-440)
chain: B1 chain with C40S

binding [2]: binds
B3: PDIA6 (135-421) C174A, HA tag (domain or fragment, UniProt Q15084 154-440)
chain: B1 chain with C40A

binding [2]: no binding
B4: PDIA6 (135-421) C171S, HA tag (domain or fragment, UniProt Q15084 154-440)
chain: B1 chain with C37S

binding [2]: no binding
B5: PDIA8, HA tag (protein, UniProt Q96DN0 26-273)
chain: EVEKSSDGPGAAQEPTWLTDVPAAMEFIAATEVAVIGFFQDLEIPAVPILHSMVQKFPGVSFGISTDSEVLTHYNITGNTICLFRLVDNEQLNLEDEDIESIDATKLSRFIEINSLHMVTEYNPVTVIGLFNSVIQIHLLLIMNKASPEYEENMHRYQKAAKLFQGKILFILVDSGMKENGKVISFFKLKESQLPALAIYQTLDDEWDTLPTAEVSVEHVQNFCDGFLSGKLLKENRESEGKTPKVEL

binding [3]: binds
binding (PDIA13, HA tag): binds
binding (PDIA4, HA tag): binds
binding [4]: binds
binding (PDIA15, HA tag): binds
B6: Thioredoxin-interacting protein (Txnip), N-terminal tandem Strep/FLAG tag (protein, UniProt Q9H3M7 1-391)
chain: T1 sequence

binding [5]: binds
B7: Txnip (in the NEM trapping experiment) (protein, UniProt Q9H3M7 1-391)
chain: T1 sequence
modifications: free cysteine residues blocked with N-ethylmaleimide (NEM)

binding [2]: binds
B8: PDIA4, HA tag (enzyme, UniProt P13667 21-645)
chain: T3 sequence

binding [2]: binds
B9: PDIA13, HA tag (enzyme, UniProt Q96JJ7 25-454)
chain: T2 sequence

binding [2]: binds
B10: PDIA6 (1-118), N-terminal domain, HA tag (domain or fragment, UniProt Q15084 20-137)
chain: LYSSSDDVIELTPSNFNREVIQSDSLWLVEFYAPWCGHCQRLTPEWKKAATALKDVVKVGAVDADKHHSLGGQYGVQGFPTIKIFGSNKNRPEDYQGGRTGEAIVDAALSALRQLVKD

binding [2]: no binding
B11: PDIA6 (1-118) C36S, HA tag (domain or fragment, UniProt Q15084 20-137)
chain: B10 chain with C36S
